Assay results: patent EP4755449A2

B1: M103205H795-SG179/M103202L889-SK1 (antibody, human IgG1, kappa)
heavy: QVTLKESGPVLVKPTETLTLTCTVSGIDLSHDDISWVRQAPGKGLEWVGIISYAGSTYYASWAKGRLTISKDTSKNQVVLTMTNMDPVDTATYYCARGVPAYSHGGDLWGQGTLVTVSSASTKGPSVFPLAPSSKSTSGGTAALGCLVKDYFPEPVTVSWNSGALTSGVHTFPAVLQSSGLYSLSSVVTVPSSSLGTQTYICNVNHKPSNTKVDKKV[letters of human IgG1 Fc with A327I (EU numbers) not shown]
light: DIVMTQSPATLSLSPGERATLSCTSSQSVYHANWLSWFQQKPGQPPKLLIYWASTLAYGVPSRFSGSGSGTDFTLTISSLQPEDAATYYCAGGYGGGRYAFGQGTKVEIKRTVAAPSVFIFPPSDEQLKSGTASVVCLLNNFYPREAKVQWKVDNALQSGNSQESVTEQDSKDSTYSLSSTLTLSKADYEKHKVYACEVTHQGLSSPVTKSFNRGEC
B2: GpH7-B3 S267A/GpL16-k0 (antibody, human IgG1, kappa)
heavy: QVQLVQSGAEVKKPGASVTVSCKASGYTFTDYEMHWIRQPPGEGLEWIGAIDPKTGDTAYSESFQDRVTLTADKSTSTAYMELSSLTSEDTAVYYCTRFYSYTYWGQGTLVTVSS[letters of human IgG1 constant region with S267A K439E (EU numbers) not shown]
light: DIVMTQSPLSLPVTPGEPASISCQASESLVHSNRNTYLHWYLQKPGQSPQLLIYKVSNRFSGVPDRFSGSGSGTDFTLKISRVEAEDVGVYYCSQNTHVPPTFGQGTKVEIERTVAAPSVFIFPPSDEQLKSGTASVVCLLNNFYPREAKVQWKVDNALQSGNSQESVTEQDSKDSTYSLSSTLTLSKADYEKHKVYACEVTHQGLSSPVTKSFNRGEC
B3: GpH7-B3 H268E/GpL16-k0 (antibody, human IgG1, kappa)
heavy: QVQLVQSGAEVKKPGASVTVSCKASGYTFTDYEMHWIRQPPGEGLEWIGAIDPKTGDTAYSESFQDRVTLTADKSTSTAYMELSSLTSEDTAVYYCTRFYSYTYWGQGTLVTVSS[letters of human IgG1 constant region with H268E K439E (EU numbers) not shown]
light: B2 light
B4: GpH7-B3 P271G/GpL16-k0 (antibody, human IgG1, kappa)
heavy: QVQLVQSGAEVKKPGASVTVSCKASGYTFTDYEMHWIRQPPGEGLEWIGAIDPKTGDTAYSESFQDRVTLTADKSTSTAYMELSSLTSEDTAVYYCTRFYSYTYWGQGTLVTVSS[letters of human IgG1 constant region with P271G K439E (EU numbers) not shown]
light: B2 light
B5: GpH7-B3 Q295L/GpL16-k0 (antibody, human IgG1, kappa)
heavy: QVQLVQSGAEVKKPGASVTVSCKASGYTFTDYEMHWIRQPPGEGLEWIGAIDPKTGDTAYSESFQDRVTLTADKSTSTAYMELSSLTSEDTAVYYCTRFYSYTYWGQGTLVTVSS[letters of human IgG1 constant region with Q295L K439E (EU numbers) not shown]
light: B2 light
B6: GpH7-B3 K326T/GpL16-k0 (antibody, human IgG1, kappa)
heavy: QVQLVQSGAEVKKPGASVTVSCKASGYTFTDYEMHWIRQPPGEGLEWIGAIDPKTGDTAYSESFQDRVTLTADKSTSTAYMELSSLTSEDTAVYYCTRFYSYTYWGQGTLVTVSS[letters of human IgG1 constant region with K326T K439E (EU numbers) not shown]
light: B2 light
B7: GpH7-B3 L328T/GpL16-k0 (antibody, human IgG1, kappa)
heavy: QVQLVQSGAEVKKPGASVTVSCKASGYTFTDYEMHWIRQPPGEGLEWIGAIDPKTGDTAYSESFQDRVTLTADKSTSTAYMELSSLTSEDTAVYYCTRFYSYTYWGQGTLVTVSS[letters of human IgG1 constant region with L328T K439E (EU numbers) not shown]
light: B2 light
B8: GpH7-B3 P331E/GpL16-k0 (antibody, human IgG1, kappa)
heavy: QVQLVQSGAEVKKPGASVTVSCKASGYTFTDYEMHWIRQPPGEGLEWIGAIDPKTGDTAYSESFQDRVTLTADKSTSTAYMELSSLTSEDTAVYYCTRFYSYTYWGQGTLVTVSS[letters of human IgG1 constant region with P331E K439E (EU numbers) not shown]
light: B2 light
B9: GpH7-B3 I332D/GpL16-k0 (antibody, human IgG1, kappa)
heavy: QVQLVQSGAEVKKPGASVTVSCKASGYTFTDYEMHWIRQPPGEGLEWIGAIDPKTGDTAYSESFQDRVTLTADKSTSTAYMELSSLTSEDTAVYYCTRFYSYTYWGQGTLVTVSS[letters of human IgG1 constant region with I332D K439E (EU numbers) not shown]
light: B2 light
B10: GpH7-B3 K334I/GpL16-k0 (antibody, human IgG1, kappa)
heavy: QVQLVQSGAEVKKPGASVTVSCKASGYTFTDYEMHWIRQPPGEGLEWIGAIDPKTGDTAYSESFQDRVTLTADKSTSTAYMELSSLTSEDTAVYYCTRFYSYTYWGQGTLVTVSS[letters of human IgG1 constant region with K334I K439E (EU numbers) not shown]
light: B2 light
B11: GpH7-B3 K334V/GpL16-k0 (antibody, human IgG1, kappa)
heavy: QVQLVQSGAEVKKPGASVTVSCKASGYTFTDYEMHWIRQPPGEGLEWIGAIDPKTGDTAYSESFQDRVTLTADKSTSTAYMELSSLTSEDTAVYYCTRFYSYTYWGQGTLVTVSS[letters of human IgG1 constant region with K334V K439E (EU numbers) not shown]
light: B2 light
B12: GpH7-B3 K334M/GpL16-k0 (antibody, human IgG1, kappa)
heavy: QVQLVQSGAEVKKPGASVTVSCKASGYTFTDYEMHWIRQPPGEGLEWIGAIDPKTGDTAYSESFQDRVTLTADKSTSTAYMELSSLTSEDTAVYYCTRFYSYTYWGQGTLVTVSS[letters of human IgG1 constant region with K334M K439E (EU numbers) not shown]
light: B2 light
B13: GpH7-B3 K334D/GpL16-k0 (antibody, human IgG1, kappa)
heavy: QVQLVQSGAEVKKPGASVTVSCKASGYTFTDYEMHWIRQPPGEGLEWIGAIDPKTGDTAYSESFQDRVTLTADKSTSTAYMELSSLTSEDTAVYYCTRFYSYTYWGQGTLVTVSS[letters of human IgG1 constant region with K334D K439E (EU numbers) not shown]
light: B2 light

biological target: cyno Fc gamma RIIIaS extracellular domain, His-tagged (cynomolgus monkey) (UniProt Q8SPW2); experiment: SPR 25C
Sequence of UniProt Q8SPW2 (Q8SPW2 other isoform, or with tags, fused parts or gaps): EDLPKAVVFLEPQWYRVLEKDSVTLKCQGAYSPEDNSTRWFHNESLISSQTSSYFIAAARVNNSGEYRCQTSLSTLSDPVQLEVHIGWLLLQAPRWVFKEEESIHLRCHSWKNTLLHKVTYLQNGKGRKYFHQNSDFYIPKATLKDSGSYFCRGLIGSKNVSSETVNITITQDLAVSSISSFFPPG

| Binder | relative binding [SG1=100] |
| --- | --- |
| B1 | 48 |

biological target: cyno Fc gamma RIIa1 extracellular domain, His-tagged (cynomolgus monkey); experiment: SPR 25C

| Binder | relative binding [SG1=100] |
| --- | --- |
| B1 | 19 |

biological target: cyno Fc gamma RIIa2 extracellular domain, His-tagged (cynomolgus monkey); experiment: SPR 25C

| Binder | relative binding [SG1=100] |
| --- | --- |
| B1 | 17 |

biological target: cyno Fc gamma RIIa3 extracellular domain, His-tagged (cynomolgus monkey); experiment: SPR 25C

| Binder | relative binding [SG1=100] |
| --- | --- |
| B1 | 28 |

biological target: cyno Fc gamma RIIb extracellular domain, His-tagged (cynomolgus monkey); experiment: SPR 25C
Sequence (chain, as listed by the source): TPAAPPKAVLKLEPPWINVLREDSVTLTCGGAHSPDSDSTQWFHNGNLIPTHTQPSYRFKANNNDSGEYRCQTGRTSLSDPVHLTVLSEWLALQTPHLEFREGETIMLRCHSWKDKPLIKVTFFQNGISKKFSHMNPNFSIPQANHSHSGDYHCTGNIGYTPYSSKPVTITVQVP

| Binder | relative binding [SG1=100] |
| --- | --- |
| B1 | 19 |

biological target: human Fc gamma RIIIaV extracellular domain, His-tagged (human) (UniProt P08637); experiment: SPR 25C
Sequence of UniProt P08637 (P08637 17-208 F176V): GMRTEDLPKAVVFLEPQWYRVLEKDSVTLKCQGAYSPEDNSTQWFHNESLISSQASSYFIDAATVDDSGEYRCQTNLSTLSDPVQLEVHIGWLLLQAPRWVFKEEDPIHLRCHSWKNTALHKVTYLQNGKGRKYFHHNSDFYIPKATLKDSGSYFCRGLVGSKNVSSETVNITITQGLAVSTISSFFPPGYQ

| Binder | relative binding (parent B3=100) |
| --- | --- |
| B2 | 145 |
| B3 | 205 |
| B4 | 93 |
| B5 | 135 |
| B6 | 164 |
| B7 | 53 |
| B8 | 46 |
| B9 | 235 |
| B10 | 187 |
| B11 | 176 |
| B12 | 183 |
| B13 | 155 |

biological target: human Fc gamma RIIaH extracellular domain, His-tagged (human) (UniProt P12318); experiment: SPR 25C

| Binder | relative binding (parent B3=100) |
| --- | --- |
| B2 | 176 |
| B3 | 169 |
| B4 | 152 |
| B5 | 128 |
| B6 | 138 |
| B7 | 156 |
| B8 | 96 |
| B9 | 129 |
| B10 | 169 |
| B11 | 172 |
| B12 | 151 |
| B13 | 97 |

biological target: human Fc gamma RIIaR extracellular domain, His-tagged (human) (UniProt P12318); experiment: SPR 25C

| Binder | relative binding (parent B3=100) |
| --- | --- |
| B2 | 125 |
| B3 | 132 |
| B4 | 130 |
| B5 | 148 |
| B6 | 127 |
| B7 | 135 |
| B8 | 67 |
| B9 | 139 |
| B10 | 137 |
| B11 | 132 |
| B12 | 127 |
| B13 | 72 |

biological target: human Fc gamma RIIb extracellular domain, His-tagged (human) (UniProt P31994); experiment: SPR 25C
Sequence of UniProt P31994 (P31994 43-217): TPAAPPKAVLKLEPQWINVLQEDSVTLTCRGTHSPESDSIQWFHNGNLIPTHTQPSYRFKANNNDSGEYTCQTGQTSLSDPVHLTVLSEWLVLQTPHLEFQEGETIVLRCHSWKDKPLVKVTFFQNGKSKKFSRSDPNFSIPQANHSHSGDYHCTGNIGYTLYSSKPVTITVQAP

| Binder | relative binding (parent B3=100) |
| --- | --- |
| B2 | 283 |
| B3 | 283 |
| B4 | 252 |
| B5 | 156 |
| B6 | 195 |
| B7 | 179 |
| B8 | 100 |
| B9 | 198 |
| B10 | 174 |
| B11 | 184 |
| B12 | 148 |
| B13 | 108 |
